Hit rate of the full screen: of about 45,000 compounds, about 65 (0.1%) were called active. The call rests on the fitted dose curve; in most records, active means well fitted activation curve with a large enough effect; inconclusive means small, poorly fitted or top-dose-only effect; inactive means no such curve, though single readings can be large or run the other way. This is one part of the list.
These molecules were tested against Galactocerebrosidase (Homo sapiens) (UniProt P54803) (assay: A Novel Cell-Based Assay to Identify Small Molecules for B -Galactocerebrosidase). Conditions: 145M-Twi-hGALC-G270D cells (Twitcher mouse brain line with human GALC G270D), HMU-beta-Gal fluorescence, 48 h; series mostly up to 57.5 µM; activation: at the top concentration.
Procedure, shortened: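 Mutant human GALC (G270D), stably expressed in a Twitcher mouse brain cell line lacking endogenous GALC, is measured in live-treated cells via 6-hexadecanoylamino-4-methylumbelliferyl-β-galactoside hydrolysis (0.1 mM final, pH 5.2) with fluorescent detection.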
Further: 0% is about no effect; nearly all actives have a fitted effect of over 65% in size.

Sequence of UniProt P54803 (P54803 whole entry, looked up): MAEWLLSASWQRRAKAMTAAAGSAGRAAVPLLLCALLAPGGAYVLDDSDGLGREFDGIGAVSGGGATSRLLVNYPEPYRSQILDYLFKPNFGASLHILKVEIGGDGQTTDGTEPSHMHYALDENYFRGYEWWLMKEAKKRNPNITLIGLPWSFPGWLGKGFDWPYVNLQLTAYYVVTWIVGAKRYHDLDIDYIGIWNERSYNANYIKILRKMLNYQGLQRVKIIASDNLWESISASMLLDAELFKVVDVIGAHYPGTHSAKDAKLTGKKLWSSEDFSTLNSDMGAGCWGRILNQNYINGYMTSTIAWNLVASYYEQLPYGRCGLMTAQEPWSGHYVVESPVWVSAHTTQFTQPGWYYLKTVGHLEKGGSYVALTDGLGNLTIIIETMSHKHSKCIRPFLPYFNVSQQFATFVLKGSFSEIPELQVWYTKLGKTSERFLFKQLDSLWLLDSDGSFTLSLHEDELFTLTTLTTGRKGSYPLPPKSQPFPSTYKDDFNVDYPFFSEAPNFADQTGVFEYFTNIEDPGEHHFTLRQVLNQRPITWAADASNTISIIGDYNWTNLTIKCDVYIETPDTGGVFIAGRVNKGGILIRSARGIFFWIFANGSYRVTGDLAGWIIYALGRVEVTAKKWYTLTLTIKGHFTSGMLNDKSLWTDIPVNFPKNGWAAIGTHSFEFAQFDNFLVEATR

activation, inactive:
COc1ccccc1N1CCN(C(=O)c2cc3ccc4ccc(C)[nH]c4c3n2)CC1 -22.6%
CCOc1ccc(-c2cc3nc(C4CCN(C(=O)OC(C)(C)C)CC4)c(C(=O)Nc4ccc(C)cc4C)cn3n2)cc1 -11.9%
CCOc1ccc(S(=O)(=O)Nc2ccc(-c3ccc(OC)nn3)cc2)cc1 -13.9%
CCC(Sc1nc2nccnc2c(=O)n1Cc1ccc(C)cc1)C(=O)NC1CCCCC1 (configuration not stated) -7.9%
CCc1nn2c(=O)c(S(=O)(=O)Nc3cccc(F)c3)c(C)nc2s1 -15.8%
COc1cc2c(c(OC)c1)C(c1cc(OC)c(OC)c(OC)c1)CC(=O)N2 (configuration not stated) -15.6%
CCCNC(=O)N1CCN(S(=O)(=O)c2ccc3c(ccn3C)c2)CC1 4.92%
Cc1c2cnn(-c3ccccc3)c(=O)c2c(C)n1CC(=O)NCc1ccccc1 -7.43%
Cc1cccc(-n2c(SCC(=O)c3ccccc3)nnc2-c2ccc(Br)cc2)c1 -7.59%
Cc1ccc(Cl)cc1NS(=O)(=O)c1cc2c3c(c1)CC(=O)N3CCC2 -20.3%
COc1cccc(CNC(=O)c2ccc(NC(=O)N3CC(C)Sc4ccccc43)cc2)c1 (configuration not stated) -12.1%
Cc1ccccc1Nc1c(-c2ccncc2)nc2ccc(Cl)cn12 -8.86%
CC(CNC(=O)CCCn1c(=O)c2cccn2c2cccnc21)c1ccccc1 (configuration not stated) -0.915%
O=C(c1ccc(CS(=O)c2ccccc2Cl)o1)N1CCN(c2cccc(Cl)c2)CC1 (configuration not stated) -11.7%
COC(=O)c1ccc(O)cc1 -14.1%
O=C(CSc1cn(CC(=O)N2CCCC2)c2ccccc12)Nc1cc(C(F)(F)F)ccc1Cl -12.7%
CCC1CN(C(=O)Nc2ccc(C(=O)O)cc2)c2cc(Cl)ccc2O1 (configuration not stated) -4.32%
Cc1ccc2nc(Cl)c3cc(C(=O)NC4CCCCCC4)sc3c2c1 4.73%
COc1cc(NC(=O)c2ccc(NC(=O)N3CCSc4ncccc43)cc2)cc(OC)c1 -1.92%
COc1ccc(CCNC(=O)c2ccc(CNS(=O)(=O)c3ccccc3)cc2)cc1OC -6.79%
CCOc1cccc2sc(N(CCN(CC)CC)C(=O)c3ccco3)nc12 4.81%
Cc1cccc(CCNC(=O)C2CCCN(S(=O)(=O)c3ccc4c(c3)oc(=O)n4C)C2)c1 (configuration not stated) -12.7%
CC(C)(C)OC(=O)N1CCC(c2c(C(=O)N3CCN(C(=O)c4ccco4)CC3)cnn2-c2ccccc2)CC1 -7.76%
CN(Cc1ccccc1)C(=O)c1cn(C)c2ccc(S(=O)(=O)N(C)C3CCCCC3)cc2c1=O -11.9%
CCCS(=O)(=O)c1nc(S(=O)(=O)c2ccc(C)cc2)c(NCc2ccccc2)s1 -0.753%
COc1cc(NC(=O)c2c(C)oc3ncnc(N4CCCCC4)c23)cc(OC)c1 4.7%
CCOc1ccc(NC(=O)CCS(=O)(=O)c2ccc(Br)cc2)cc1 -3.03%

From PubChem BioAssay AID1159614 (National Center for Advancing Translational Sciences (NCATS), 2016)
